# From the supplement of paper PMC9446081
# Out of some 39,000 compounds screened, about 220 (0.56%) showed activity. Some of the results follow.
# System: Escherichia coli K-12 BW25113
# Test: relative growth (OD600 normalised to plate interquartile mean) (fraction); higher = less growth inhibition, active = 0.2 or less
# Conditions: 50 µM; LB; incubation time: overnight (16-24 h)
# 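Note: static incubation at 37 °C against the wild-type strain, values averaged over two biological replicates.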
row,SMILES,relative growth
1,Cc1ccc(S(=O)(=O)Nc2ccc3c(c2)C(=O)N([C@H](C)CO)C[C@@H](C)[C@H](CN(C)C(=O)C2CCCCC2)OCCCC[C@H](C)O3)cc1,inactive: 0.989
2,COc1ccc(CN(C)C[C@H]2OCCCC[C@H](C)Oc3ccc(NS(=O)(=O)c4ccccc4)cc3C(=O)N([C@H](C)CO)C[C@H]2C)cc1,inactive: 0.995
3,C[C@@H]1CN([C@@H](C)CO)S(=O)(=O)c2ccc(C#CC3(O)CCCC3)cc2O[C@@H]1CN(C)C(=O)Cc1ccncc1,inactive: 1.01
4,C[C@H](CO)N1C[C@H](C)[C@H](CN(C)S(=O)(=O)c2ccccc2)Oc2ncc(C#Cc3ccc(F)cc3)cc2C1=O,inactive: 1.01
5,COc1ccc(S(=O)(=O)Nc2ccc3c(c2)C(=O)N([C@@H](C)CO)C[C@H](C)[C@H](CN(C)CC2CCCCC2)OCCCC[C@@H](C)O3)cc1,inactive: 0.982
6,O=C(CCCCCCC(=O)Nc1ccc(C(=O)NCCOCCOCCNC(=O)c2ccc(NC(=O)CCCCCCC(=O)NO)cc2)cc1)NO,inactive: 0.977
7,Cc1ccc(S(=O)(=O)Nc2ccc3c(c2)C(=O)N([C@@H](C)CO)C[C@H](C)[C@H](CN(C)C(=O)Nc2ccccc2)OCCCC[C@H](C)O3)cc1,inactive: 0.997
8,C[C@@H]1CN([C@@H](C)CO)C(=O)Cc2cc(NC(=O)C3CC3)ccc2O[C@H]1CN(C)Cc1ccc(Oc2ccccc2)cc1,inactive: 0.967
9,COc1cc(C)ccc1S(=O)(=O)N1[C@@H]2CC[C@@H](C2)[C@H]1c1nc2cccc(OCc3ccc(F)cc3)c2[nH]1,inactive: 1.04
10,CCNC(=O)C[C@H]1CC[C@H]2[C@@H](COc3ccc(NS(=O)(=O)c4ccccc4C)cc3C(=O)N2C)O1,inactive: 0.96
11,Cc1ccc(S(=O)(=O)N(C)C[C@@H]2OCCCC[C@@H](C)Oc3ccc(NC(=O)CCC(F)(F)F)cc3C(=O)N([C@H](C)CO)C[C@@H]2C)cc1,inactive: 1.03
12,COc1cccc(C#Cc2cnc3c(c2)C(=O)N([C@@H](C)CO)C[C@@H](C)[C@@H](CN(C)C(=O)C2CCC2)O3)c1,inactive: 1.01
13,O=C(NCCN1CCOCC1)C(=O)NC[C@H]1OCCN1S(=O)(=O)c1ccc(F)cc1,inactive: 1.01
14,C[C@H](CO)N1C[C@H](C)[C@@H](CN(C)CC2CC2)Oc2ccc(NS(=O)(=O)c3ccc(F)cc3)cc2C1=O,inactive: 1.01
15,CC(C)NC(=O)N(C)C[C@@H]1OCCCC[C@@H](C)Oc2ccc(NC(=O)Nc3cccc4ccccc34)cc2C(=O)N([C@H](C)CO)C[C@@H]1C,inactive: 0.997
16,C[C@H]1CCCCO[C@H](CN(C)Cc2ccncc2)[C@@H](C)CN([C@@H](C)CO)C(=O)c2cc(NC(=O)Nc3ccc(C(F)(F)F)cc3)ccc2O1,inactive: 0.992
17,C[C@@H]1CCCCO[C@@H](CN(C)C(=O)Nc2cccc3ccccc23)[C@H](C)CN([C@@H](C)CO)C(=O)c2cc(NC(=O)c3ccccc3)ccc2O1,inactive: 1.05
18,COc1ccc(S(=O)(=O)N(C)C[C@@H]2Oc3ccc(NS(=O)(=O)c4ccccc4)cc3CC(=O)N([C@H](C)CO)C[C@H]2C)cc1,inactive: 0.99
19,Cc1noc(C)c1S(=O)(=O)Nc1ccc2c(c1)C(=O)N([C@@H](C)CO)C[C@@H](C)[C@H](CN(C)C(=O)Nc1cccc3ccccc13)OCCCC[C@@H](C)O2,inactive: 1.02
20,C[C@H](CO)N1C[C@H](C)[C@H](CN(C)Cc2ccc(Cl)c(Cl)c2)Oc2ccc(NC(=O)Nc3cccc4ccccc34)cc2CC1=O,inactive: 1.04
21,C[C@H]1CN([C@@H](C)CO)C(=O)CCCn2cc(nn2)CO[C@@H]1CN(C)C(=O)Nc1ccccc1C(F)(F)F,inactive: 0.97
22,O=C(O)[C@H]1C[C@@H](CP(=O)(O)O)CCN1,inactive: 0.983
23,C[C@H]1CN([C@@H](C)CO)C(=O)c2cc(NC(=O)CCCN(C)C)ccc2O[C@H]1CN(C)S(=O)(=O)c1ccc(F)cc1,inactive: 0.97
24,C[C@@H]1CCCCO[C@H](CN(C)S(=O)(=O)c2cccs2)[C@@H](C)CN([C@H](C)CO)C(=O)c2cc(NC(=O)Cc3ccccc3)ccc2O1,inactive: 1.03
25,COc1ccc(S(=O)(=O)N(C)C[C@H]2Oc3ccc(NS(=O)(=O)c4ccc(C)cc4)cc3C(=O)N([C@H](C)CO)C[C@H]2C)cc1,inactive: 1.04
26,COc1ccc([C@@H](NC(=O)C2CCN(Cc3ccc(Oc4ccccc4)cc3)CC2)c2ccccc2C)cn1,inactive: 1.02
27,C[C@@H]1CN([C@H](C)CO)S(=O)(=O)c2ccc(C#CCN(C)C)cc2O[C@H]1CN(C)Cc1ccc2c(c1)OCO2,inactive: 1
28,C[C@H]1CN([C@@H](C)CO)C(=O)c2cccc(NC(=O)c3nc4ccccc4s3)c2O[C@H]1CN(C)Cc1ccc(C(=O)Nc2ccccc2N)cc1,inactive: 1.02

row,SMILES,relative growth
1,C[C@H](CO)N1C[C@H](C)[C@@H](CN(C)S(=O)(=O)c2ccccc2)Oc2c(NS(C)(=O)=O)cccc2C1=O,inactive: 0.977
2,CO[C@@H]1[C@@H](O[C@@H]2O[C@H](C)[C@@H](O[C@H]3C[C@@](C)(O)[C@@H](O)[C@H](C)O3)[C@H](N(C)C)[C@H]2O)[C@@H](CC=O)C[C@@H](C)[C@@H](O[C@H]2CC[C@H](N(C)C)[C@@H](C)O2)/C=C/C=C/C[C@@H](C)OC(=O)C[C@H]1O,inactive: 0.894
3,C[C@@H]1CN([C@H](C)CO)C(=O)c2cc(C#CC3CCCCC3)cnc2O[C@H]1CN(C)C(=O)Cc1ccccn1,inactive: 0.996
4,NC1CCN(C(=O)NC2CCCCC2)CC1,inactive: 0.993
5,COc1ccc(NC(=O)Nc2ccc3c(c2)C(=O)N([C@@H](C)CO)C[C@@H](C)[C@@H](CN(C)C(=O)Nc2ccc4c(c2)OCO4)OCCCC[C@@H](C)O3)cc1,inactive: 0.942
6,C[C@@H]1CN([C@@H](C)CO)C(=O)c2cc(NC(=O)CCC(F)(F)F)ccc2O[C@@H](C)CCCCO[C@H]1CN(C)Cc1ccc(C(F)(F)F)cc1,inactive: 1
7,C[C@@H]1CN([C@@H](C)CO)C(=O)c2cc(NC(=O)CCC(F)(F)F)ccc2O[C@@H](C)CCCCO[C@H]1CN(C)Cc1ccc(C(=O)O)cc1,inactive: 1.01
8,C[C@H](CO)N1C[C@H](C)[C@@H](CN(C)Cc2ccccc2)Oc2ccc(NC(=O)CCCN(C)C)cc2CC1=O,inactive: 0.981
9,C[C@H]1CN([C@@H](C)CO)C(=O)Cc2cc(NC(=O)Nc3ccccc3)ccc2O[C@@H]1CN(C)Cc1ccc(C(F)(F)F)cc1,inactive: 1.01
10,C[C@@H]1CN([C@@H](C)CO)C(=O)Cc2cc(NS(C)(=O)=O)ccc2O[C@@H]1CN(C)C(=O)Nc1ccc2c(c1)OCO2,inactive: 0.975
11,COc1ccc(NC(=O)Nc2ccc3c(c2)C(=O)N([C@H](C)CO)C[C@H](C)[C@H](CN(C)S(=O)(=O)c2c(C)noc2C)OCCCC[C@H](C)O3)cc1,inactive: 1.05
12,C[C@H](CO)N1C[C@H](C)[C@@H](CN(C)S(=O)(=O)c2ccc(Cl)cc2)OCCCC[C@H](C)Oc2ccc(NS(=O)(=O)c3cccs3)cc2C1=O,inactive: 1.04
13,CC(C)CC#Cc1cnc2c(c1)C(=O)N([C@@H](C)CO)C[C@H](C)[C@@H](CN(C)S(=O)(=O)c1cn(C)cn1)O2,inactive: 1
14,C[C@@H]1CN([C@@H](C)CO)C(=O)c2cc(C#C[C@@H](C)O)cnc2O[C@@H]1CN(C)C(=O)CN1CCOCC1,inactive: 0.994
15,C[C@@H]1CCCCO[C@@H](CN(C)C(=O)C2CCCCC2)[C@H](C)CN([C@H](C)CO)C(=O)c2cc(NC(=O)c3ccccc3)ccc2O1,inactive: 1
16,CC[C@@H](C)c1ccc(NC(=O)c2ccc(N(CC)CC)cc2)cc1,inactive: 0.85
17,Cc1ccc(S(=O)(=O)N(C)C[C@H]2OCCCC[C@H](C)Oc3ccc(NC(=O)Nc4ccc(F)cc4)cc3C(=O)N([C@@H](C)CO)C[C@H]2C)cc1,inactive: 1.01
18,C[C@@H]1CN([C@H](C)CO)C(=O)Cc2cc(NC(=O)Nc3ccc(C(F)(F)F)cc3)ccc2O[C@H]1CN(C)Cc1ccc(Cl)c(Cl)c1,inactive: 0.977
19,CN1CCN(C(=O)C[C@@H]2CC[C@H]3[C@@H](COC[C@@H](O)CN3S(=O)(=O)c3cccc(F)c3)O2)CC1,inactive: 0.972
20,CN(C)CCCNC(=O)C[C@H]1CC[C@H]2[C@@H](COC[C@@H](O)CN2S(=O)(=O)c2ccc(Cl)cc2)O1,inactive: 0.983
21,C[C@@H]1CN([C@@H](C)CO)C(=O)c2cc(NC(=O)Cc3ccccc3)ccc2O[C@@H](C)CCCCO[C@@H]1CN(C)CC1CCCCC1,inactive: 0.992
22,CCS(=O)(=O)N1C[C@]2(C1)CN([C@H](CO)c1c2c2ccc(cc2n1C)OC)S(=O)(=O)c1ccccc1,inactive: 0.99
23,C[C@H]1CN([C@@H](C)CO)C(=O)c2cccc(NS(=O)(=O)c3ccc(F)cc3)c2O[C@H]1CN(C)S(=O)(=O)c1ccc(F)cc1,inactive: 0.999
24,C[C@@H]1CN([C@@H](C)CO)C(=O)c2cc(-c3ccc(C(=O)N(C)C)cc3)cnc2O[C@H]1CN(C)C(=O)c1cccnc1,inactive: 1.03
25,C[C@@H]1CCCCO[C@@H](CN(C)CC2CC2)[C@@H](C)CN([C@H](C)CO)C(=O)c2cc(NC(=O)Nc3ccc4c(c3)OCO4)ccc2O1,inactive: 0.991
26,COCC(=O)N1C[C@@H](C)[C@@H](OC)CN(C)C(=O)c2ccc(NC(=O)Nc3cccc(F)c3)cc2OC[C@H]1C,inactive: 1.02
27,C[C@@H]1CN([C@@H](C)CO)C(=O)c2cc(NC(=O)Cc3ccccc3)ccc2O[C@@H]1CN(C)S(=O)(=O)c1cn(C)cn1,inactive: 1.01
